Experimental data taken from article PMC4336329 (PLoS ONE, 2015).
Among all 310,000 compounds or so, about 2,200 (0.71%) showed an effect of 50% or more. Effects have a minus sign here. The list shows a part of the results.

biological target: human ether-à-go-go-related gene (hERG) potassium channel (human, UniProt Q12809); experiment: primary screen, population patch clamp on CHO cells stably expressing hERG
Sequence (Q12809 whole entry, looked up): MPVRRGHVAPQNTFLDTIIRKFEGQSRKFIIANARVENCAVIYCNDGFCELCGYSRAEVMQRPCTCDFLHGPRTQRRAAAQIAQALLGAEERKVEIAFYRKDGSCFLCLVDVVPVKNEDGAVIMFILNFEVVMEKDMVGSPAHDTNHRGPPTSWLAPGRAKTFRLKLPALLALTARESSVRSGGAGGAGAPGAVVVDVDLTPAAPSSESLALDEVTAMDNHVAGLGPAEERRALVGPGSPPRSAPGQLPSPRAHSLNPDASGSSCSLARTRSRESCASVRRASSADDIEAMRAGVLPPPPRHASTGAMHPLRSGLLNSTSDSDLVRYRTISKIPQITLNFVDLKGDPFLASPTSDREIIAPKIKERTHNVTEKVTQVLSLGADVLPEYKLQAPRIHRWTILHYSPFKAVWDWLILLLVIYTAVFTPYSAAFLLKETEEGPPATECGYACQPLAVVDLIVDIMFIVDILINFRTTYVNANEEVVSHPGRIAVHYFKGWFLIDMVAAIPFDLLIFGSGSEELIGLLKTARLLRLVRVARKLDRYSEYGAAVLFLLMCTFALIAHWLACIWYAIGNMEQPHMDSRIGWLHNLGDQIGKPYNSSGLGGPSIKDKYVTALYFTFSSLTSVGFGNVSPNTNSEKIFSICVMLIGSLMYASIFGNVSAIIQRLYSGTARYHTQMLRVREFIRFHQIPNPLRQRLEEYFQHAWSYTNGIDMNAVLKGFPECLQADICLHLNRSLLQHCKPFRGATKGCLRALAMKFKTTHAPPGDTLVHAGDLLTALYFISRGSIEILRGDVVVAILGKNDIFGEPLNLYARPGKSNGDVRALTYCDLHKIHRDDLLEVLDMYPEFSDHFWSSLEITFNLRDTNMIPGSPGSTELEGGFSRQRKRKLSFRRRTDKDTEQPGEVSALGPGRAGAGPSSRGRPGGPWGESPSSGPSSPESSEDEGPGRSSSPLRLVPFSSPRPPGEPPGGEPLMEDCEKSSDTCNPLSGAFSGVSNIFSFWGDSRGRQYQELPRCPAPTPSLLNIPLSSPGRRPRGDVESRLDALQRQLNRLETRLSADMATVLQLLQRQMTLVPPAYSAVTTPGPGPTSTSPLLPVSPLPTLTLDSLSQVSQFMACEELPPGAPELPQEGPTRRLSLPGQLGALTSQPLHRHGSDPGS

SMILES | hERG current change (%, negative = inhibition) at 1uM [%]
COP(=O)(OC)c1nc(-c2ccccc2)oc1N1CCOCC1 | 10
CC1=CCCC(C)(C)C1/C=C/C(C)=N/NC(=O)c1ccncc1 (stereo not shown) | 2.91
COc1ccc(NC(=O)NNC(=O)c2ccc(-c3ccccc3)cc2)cc1 | 3.44
NCCNC(=O)Cn1c(=O)c2c3c(sc2n(Cc2ccccc2)c1=O)CCCC3 | 9.14
COC(=O)c1sc(N)c(C(=O)OC)c1COC(=O)CNS(=O)(=O)c1cccc(C#N)c1 | 2.19
Cc1nc2ccccc2c2oc(C(=O)N3CC(C)CC(C)C3)cc12 (stereo not shown) | 11.3
CCCCN(C(=O)CSc1nncn1-c1ccccc1OC)c1c(N)n(Cc2ccccc2)c(=O)[nH]c1=O | 18.6
O=C(COc1ccccc1)Nc1ccc(NC(=O)c2ccco2)cc1 | 4.08
CCOC(=O)Cn1c(-c2ccccc2)cc(SC)c(C#N)c1=O | 20.3
COc1ccc(-n2c(=S)[nH]c3cc(C(=O)NCCCN4CCOCC4)ccc3c2=O)cc1 | 17
COC(=O)/C=C1\S/C(=N/N=C/c2ccco2)NC1=O | 4.39
COc1cc(NC(=S)Nc2ccc(S(=O)(=O)N3CCOCC3)cc2)cc(OC)c1OC | 13.2
COc1ccccc1CNC(=O)CCc1ccccc1 | 8.64
CCCCn1c(=O)n(CC(=O)NCc2ccc(C)cc2)c(=O)c2c1nc(CO)n2CCC | 8.31
COc1cccc(N2CC(NC(=O)c3cccc4ccccc34)CC2=O)c1 (stereo not shown) | 7.17
CCOc1ccc(NC(=O)COC(=O)c2c(OC)cccc2OC)cc1 | -0.332
Cn1c(=O)c2c(nc(NCc3ccco3)n2CC(O)CO)n(C)c1=O (stereo not shown) | 6.33
O=C(O)CCC(=O)NC1CCCCCCC1 | 7.73
c1ccc(CSc2ncn[nH]2)nc1 | 16
CCCOc1ccc(NC(N)=O)cc1OCCC | 4.53
O=C(Cc1ccccc1)Nc1cccc(S(=O)(=O)N2CCCCCC2)c1 | 1.36
Cc1ccnc(NC(=O)CCC(=O)N(Cc2ccco2)C(C(=O)NC(C)C)c2ccc(F)cc2)c1 (stereo not shown) | 8.98

SMILES | hERG current change (%, negative = inhibition) at 1uM [%]
CCn1c(SCC(=O)c2ccccc2)nc2sc3c(c2c1=O)CCN(C)C3 | 10.1
Cc1nn2c(=O)cc(COC(=O)c3c(F)cccc3Cl)nc2s1 | 13.1
Cn1c(CCNC(=O)c2cccs2)n[nH]c1=S | 17.6
CC1CCC(C(=O)NNC(=O)c2cc(-c3ccco3)[nH]n2)CC1 (stereo not shown) | 6.83
CN(C)CCOc1ccc(C(C)(C)c2ccccc2)cc1.O=C(O)C(=O)O | 11.4
COc1ccc(/C=C(/NC(=O)c2ccccc2)C(=O)NCCN2CCOCC2)cc1OC | 14.3
O=c1c([N+](=O)[O-])cc(C(F)(F)F)cn1Cc1cccc(Cl)c1 | 11.2
CCCn1c(-c2cccs2)nc2nc3ccccc3nc21 | 4.44
O=[N+]([O-])c1cnccc1NC1CCCCC1 | 13.8
O=C(NCc1csc2ccc(Cl)cc12)Nc1cccc2ccccc12 | 14.5
Cc1cccc(C2CC3(CC(C)(C)NC(=S)N3)Oc3cc(O)ccc32)c1 (stereo not shown) | 4.46
COc1ccc([C@H]2CC(=O)C=C(c3ccc4c(c3)OCO4)C2)cc1OC | 3.65
CN1CCCN(C(=O)COc2ccccc2)CC1 | 10
CC(C)(C)N1C(=O)[C@H]2[C@@H](c3ccc(Br)cc3)N3C(=O)N(c4cccc(F)c4)C(=O)[C@@]3(Cc3ccccc3)[C@H]2C1=O | 7.07
CCCn1c(C)nc2cc(Cl)c(N3CCN(c4nc(-c5ccc(C)cc5)cs4)CC3)cc21 | 10.7
CCOc1ccc(NC(=O)c2nn(C)cc2Br)cc1 | 2.04
C=CCNC(=S)N1CCC(C(N)=O)CC1 | 7.33
CN(c1ccc(C(=O)NCCc2ccccc2)cc1)S(C)(=O)=O | 12.6
CC(C)[C@H](NC(=O)N1CCn2c1nc1ccccc12)C(=O)NCCc1ccccc1 | 11.8
Cc1ccc(-c2nnc(-c3cccnc3)o2)cc1 | 2.23
O=C(Cn1c(=S)nc2ccccn21)N1CCc2ccccc2C1 | 0.947
Cc1ccc(OCc2ccc(C(=O)NN)o2)c([N+](=O)[O-])c1 | 6.54

SMILES | hERG current change (%, negative = inhibition) at 1uM [%]
N#Cc1nc(-c2ccco2)oc1NCc1ccco1 | 11.3
COC(OC)C12c3ccccc3C(c3ccccc31)C1C(=O)N(c3cccnc3)C(=O)C12 (stereo not shown) | 13
COc1ccc(CN2C(=O)c3cccnc3C2=O)cc1S(=O)(=O)N1CCOc2ccc(C)cc21 | -2.24
CC1CCN(CCCNC(=O)CN2C(=O)CSc3ccc(S(=O)(=O)N4CCOCC4)cc32)CC1 | 10.4
Cc1ccc(S(=O)(=O)N2CCCC(C)C2)cc1 (stereo not shown) | 10.6
c1ccc(CCNc2nnnn2-c2ccccc2)cc1 | 15.3
CCc1ccc(CNC(=O)c2ccc(NC(=O)C3=CSCCO3)cc2)cc1 | 4.01
CC1=NN(c2nc(-c3ccc(F)cc3)cs2)C(=O)C1 | 1.67
Cc1ccc(-c2nc(CN3CCCC(C(=O)N4CCOCC4)C3)c(C)o2)cc1 (stereo not shown) | -9.44
COC(=O)c1ccc(S(=O)(=O)N2CCCN(Cc3cccc(Br)c3F)CC2)n1C | 4.22
Cc1cccc(C(=O)N2CC3(C)CC2CC(C)(C)C3)c1 (stereo not shown) | 8.1
CCOc1ccc(OCCSc2nc3ccccc3n2CC(=O)O)cc1 | 9.14
Cc1ccc(C(=O)OCC(=O)NC(=O)c2cccn2C)cc1 | 6.46
O=C(COC(=O)c1cc(S(=O)(=O)N2CCOCC2)ccc1F)c1ccc[nH]1 | 1.11
Cc1ccc(NC(=O)COc2ccccc2[N+](=O)[O-])nc1 | 12.4
CC(C)[C@@H]1CC[C@@H](C)C[C@H]1OC(=O)C[n+]1cc(-c2ccc(Cl)cc2)n2c1CCCCC2.[Cl-] | 3.7
Cc1ccc(N(CC(=O)NC2CCCCC2)S(=O)(=O)c2c(C)noc2C)cc1 | 9.08
COc1ccc(NC(=O)Nc2cccc(C(F)(F)F)c2)cn1 | 1.17
CCCS(=O)(=O)N1CCCC(C(=O)NCc2ccco2)C1 (stereo not shown) | 12.6
O=C(Nc1ccc(OCc2ccccc2)cc1)c1ccccc1 | 12.5
CCCCC1(C)OC(=O)C(=Cc2ccc(-c3ccc(Cl)c(C(=O)O)c3)o2)C(=O)O1 (stereo not shown) | 2
CNS(=O)(=O)c1cc(C(=O)OCC(=O)NC2CCCc3ccccc32)ccc1Cl (stereo not shown) | 4.51

SMILES | hERG current change (%, negative = inhibition) at 1uM [%]
Cc1ccc(-c2nnn(CC(=O)N3CCN(c4ccccc4)CC3)n2)o1 | 8.24
NS(=O)(=O)c1ccc(NC(=O)CN2CCN(S(=O)(=O)c3ccc(F)cc3)CC2)cc1 | 7.08
Cc1ccc(S(=O)(=O)NC(=O)Nc2ccc(C)cn2)cc1 | 26.2
OCC(O)[C@@H](O[C@H]1O[C@H](CO)[C@@H](O)[C@H](O)[C@H]1O)[C@H](O)[C@@H](O)CO (stereo partly shown) | 14.4
COc1ccc(/C=C2\SC(=O)N(CC(=O)NN3CCN(C)CC3)C2=O)cc1OC | 21.1
Cc1nc2ccc(NC(=O)Cc3ccccc3F)cc2s1 | 2.55
COc1ccc(NS(=O)(=O)NC(=O)c2c(C)n(C)c3ccccc23)cc1 | 15.9
COc1ccccc1NC(=O)COC(=O)COc1cccc2c1OC(C)(C)C2 | -2.64
C/C(=N\Nc1ccccn1)c1ccc(C(C)C)cc1 | 11.6
Cc1cc(C)c2c(c1)/C(=c1/sc3n(c1=O)CN(c1ccccc1)CN=3)C(=O)N2 | 10.5
CC(Sc1nnc(COc2ccc(Cl)cc2)n1Cc1ccco1)C(=O)N1CCNC1=O (stereo not shown) | -5.57
CC(C)(Cl)C1Cc2cc3ccc(=O)oc3cc2O1 (stereo not shown) | 8.67
Cc1c(NC(=O)Nc2ccc(F)cc2F)c(=O)n(-c2ccccc2)n1C | -12.8
COc1ccc(S(=O)(=O)N2CC(C)N(C(=O)N3CCOCC3)C2)cc1 (stereo not shown) | 17.1
O=C1c2nc3cc(-c4ccccc4)[nH]n3c(=O)c2CN1Cc1ccccc1 | 15.4
CN(C)c1ccc(CN(C(=O)c2ccc(Cl)c([N+](=O)[O-])c2)C2CCS(=O)(=O)C2)cc1 (stereo not shown) | 8.22
CCCCn1c(N)c(N(CCOC)C(=O)c2cc3c(s2)CCC(C)C3)c(=O)[nH]c1=O (stereo not shown) | 12.9
O=C(Nc1ncc2c(n1)-c1ccccc1CC2)C1CC1 | 9.2
O=S(=O)(Nc1ccc(-c2ccc(N3CCOCC3)nn2)cc1)c1ccc(Cl)c(Cl)c1 | 12.4
Cc1ccc(NC(=O)COC(=O)CC2SC(N3CCCC3)=NC2=O)cc1 (stereo not shown) | 11
CCCCc1cc(=O)oc2c(C)c(OCC(=O)NCc3ccccn3)ccc12 | -18.6
Nc1cc2c(cc1Cl)N(Cc1ccccc1)C(=O)CO2 | 14.9
